From the supplement of paper PMC4967469
By IC50 is meant the dose at which the fit gives 50% viability; where the fit passes the top or lowest dose, that dose stands as a limit. AUC, from the same fit, is the share of area under the viability curve across the 256-fold dose range; values near 1 show little effect. For some assays here: Where the top dose is marked as inferred, it comes from the curve model; the source does not state it. For some assays here: An entry number marks a drug with two screens in the source, which often give different values.

What was measured:
Experiment in all cases: Viability of human cancer cell lines after 72 h of drug (GDSC screen)
[1] = compound: CC(=O)c1c(C)c2cnc(Nc3ccc(N4CCNCC4)cn3)nc2n(C2CCCC2)c1=O [PD-0332991]
Procedure: (§1)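 Human cancer cell lines in 384-well plates, medium with 10% serum, drug for 72 h over a 256-fold dose range (nine 2-fold or five 4-fold steps up to the top dose). Adherent lines were fixed and stained with the nucleic acid dye Syto60, suspension lines read with resazurin; signal relative to control wells, capped at 0 and 100%. One two-parameter sigmoid per drug and line, fitted in a mixed model over all curves with the slope shared within a line.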

[2] = compound: COc1cc2c(Nc3ccc(NC(=O)c4ccccc4)cc3)ncnc2cc1OCCCN1CCOCC1 [ZM-447439]; settings: top dose inferred
Procedure: as §1

[3] = compound: Cn1cnc2c(F)c(Nc3ccc(Br)cc3Cl)c(C(=O)NOCCO)cc21 [AZD6244]; settings: screen: GDSC drug entry 1062
Procedure: as §1

Cell Line | AUC [1] | IC50 [1] [µM] | AUC [2] | IC50 [2] [µM] | AUC [3] | IC50 [3] [µM]
G-402 (soft tissue, adherent, top dose 4 µM) | 0.753 | 1.75 | 0.864 | > 4 |  | 
Hep 3B2_1-7 (liver, adherent, top dose 4 µM) | 0.97 | > 4 |  |  | 0.978 | > 4
Hs-578-T (breast, adherent, top dose 4 µM) | 0.702 | 0.963 |  |  | 0.986 | > 4
IA-LM (large cell lung carcinoma, adherent, top dose 4 µM) | 0.89 | > 4 |  |  | 0.983 | > 4
JHOS-2 (ovary, adherent, top dose 4 µM) | 0.784 | 2.01 |  |  | 0.954 | > 4
JHOS-3 (ovary, adherent, top dose 4 µM) | 0.984 | > 4 |  |  | 0.984 | > 4
JHU-011 (head and neck, adherent, top dose 4 µM) | 0.474 | 0.213 |  |  | 0.93 | > 4
JIMT-1 (breast, adherent, top dose 4 µM) | 0.945 | > 4 |  |  | 0.968 | > 4
KON (head and neck, adherent, top dose 4 µM) | 0.613 | 0.509 |  |  | 0.916 | > 4
LB1047-RCC (kidney, adherent, top dose 4 µM) | 0.64 | 0.642 |  |  | 0.975 | > 4
LC-1-sq (lung squamous cell carcinoma, adherent, top dose 4 µM) | 0.893 | > 4 |  |  | 0.949 | > 4
LN-229 (glioma, adherent, top dose 4 µM) | 0.837 | 2.65 |  |  | 0.746 | 1.26
MDA-MB-436 (breast, adherent, top dose 4 µM) | 0.959 | > 4 |  |  | 0.984 | > 4
MS751 (cervix, adherent, top dose 4 µM) | 0.99 | > 4 |  |  | 0.989 | > 4
NCI-H838 (lung adenocarcinoma, adherent, top dose 4 µM) | 0.675 | 0.788 |  |  | 0.987 | > 4
NCI-H2066 (small cell lung carcinoma, adherent, top dose 4 µM) | 0.979 | > 4 |  |  | 0.98 | > 4
OAW-42 (ovary, adherent, top dose 4 µM) | 0.963 | > 4 |  |  | 0.983 | > 4
OMC-1 (cervix, adherent, top dose 4 µM) | 0.988 | > 4 |  |  | 0.988 | > 4
OV-7 (ovary, adherent, top dose 4 µM) | 0.954 | > 4 |  |  | 0.927 | > 4
OV-17R (ovary, adherent, top dose 4 µM) | 0.955 | > 4 |  |  | 0.966 | > 4
OVCA433 (ovary, adherent, top dose 4 µM) | 0.873 | > 4 |  |  | 0.961 | > 4
OVCAR-5 (ovary, adherent, top dose 4 µM) | 0.632 | 0.624 |  |  | 0.979 | > 4

Cell Line | AUC [1] | IC50 [1] [µM] | AUC [2] | IC50 [2] [µM] | AUC [3] | IC50 [3] [µM]
OVISE (ovary, adherent, top dose 4 µM) | 0.956 | > 4 |  |  | 0.897 | > 4
PCI-4B (head and neck, adherent, top dose 4 µM) | 0.587 | 0.428 |  |  | 0.955 | > 4
PCI-6A (head and neck, adherent, top dose 4 µM) | 0.912 | > 4 |  |  | 0.954 | > 4
PL4 (pancreas, adherent, top dose 4 µM) | 0.983 | > 4 |  |  | 0.987 | > 4
RCC-ER (kidney, adherent, top dose 4 µM) | 0.949 | > 4 |  |  | 0.986 | > 4
RERF-LC-KJ (lung adenocarcinoma, adherent, top dose 4 µM) | 0.987 | > 4 |  |  | 0.987 | > 4
RKN (ovary, adherent, top dose 4 µM) | 0.78 | 1.74 |  |  | 0.98 | > 4
RT4 (bladder, adherent, top dose 4 µM) | 0.968 | > 4 | 0.983 | > 4 |  | 
SBC-3 (small cell lung carcinoma, adherent, top dose 4 µM) | 0.899 | > 4 |  |  | 0.989 | > 4
SF295 (glioma, adherent, top dose 4 µM) | 0.77 | 1.64 |  |  | 0.953 | > 4
SISO (cervix, adherent, top dose 4 µM) | 0.988 | > 4 |  |  | 0.988 | > 4
SK-CO-1 (large intestine, adherent, top dose 4 µM) | 0.856 | 2.93 |  |  | 0.989 | > 4
SK-HEP-1 (liver, adherent, top dose 4 µM) | 0.792 | 1.68 | 0.883 | 3.82 |  | 
SKN-3 (head and neck, adherent, top dose 4 µM) | 0.825 | 2.99 |  |  | 0.972 | > 4
SNU-182 (liver, adherent, top dose 4 µM) | 0.977 | > 4 |  |  | 0.986 | > 4
SNU-423 (liver, adherent, top dose 4 µM) | 0.929 | > 4 |  |  | 0.983 | > 4
SW626 (ovary, adherent, top dose 4 µM) | 0.93 | > 4 |  |  | 0.982 | > 4
SW1271 (small cell lung carcinoma, adherent, top dose 4 µM) | 0.958 | > 4 |  |  | 0.979 | > 4
SiHa (cervix, adherent, top dose 4 µM) | 0.984 | > 4 |  |  | 0.987 | > 4
TOV-112D (ovary, adherent, top dose 4 µM) | 0.826 | 2.45 |  |  | 0.973 | > 4
TYK-nu (ovary, adherent, top dose 4 µM) | 0.656 | 0.699 |  |  | 0.936 | > 4
UWB1.289 (ovary, adherent, top dose 4 µM) | 0.975 | > 4 |  |  | 0.965 | > 4
